{"source": "PubChem BioAssay AID1345083", "about": "(National Center for Advancing Translational Sciences (NCATS), 2018)", "note": "Among all 94,000 compounds or so, about 6,200 (6.6%) were called active. The inconclusive results got no clear call from the source; some entries with a clear call stand among them for comparison. The call rests on the fitted dose curve; in most records, active means well fitted inhibition curve with a large enough effect; inconclusive means small, poorly fitted or top-dose-only effect; inactive means flat fitted curve, though single readings scatter. A potency beside an inconclusive call is a rough fit, not a confirmed value.", "data": [{"test": "Cytotoxic Profiling in HEK 293 Cell Line of Diverse Libraries Using Quantitative High-Throughput Screening; further: nearly all actives have a fitted effect of over 60% in size; further: potency means the concentration at half of the fitted maximal effect; tags describe the fitted curve by direction and shape; on activity change, negative = cytotoxicity: on the % scale 0 is the no-effect control and ±100 the full control effect", "conditions": "HEK 293 viability, ATP luminescence (CellTiter-Glo), 48-72 h; activity change, negative = cytotoxicity: at 115 µM (top of the series) unless noted; series mostly up to 115 µM", "in_short": "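qHTS cytotoxicity; HEK 293, 250 cells/well; compound pinned; 48 or 72 hr, 37 degree Celsius, 5% CO2, 95% humidity; CellTiter-Glo, 10 min RT; luminescence (ATP).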", "values": [{"molecule": "O=C(c1cc2ccccc2[nH]1)N1CCCC(c2nc(CCOCC3CC3)no2)C1", "note": "(stereo unspecified)", "Potency": "inconclusive: 50.1 µM [inhibitor, partial curve, poor fit]"}, {"molecule": "CC(=O)N1CCN(C[C@@H]2C=C(C)[C@H](Cc3nnc(-c4ccncc4)o3)C[C@H]2C(C)C)CC1", "Potency": "inconclusive: 126 µM [inhibitor, partial curve, poor fit]"}, {"molecule": "COCC1CN(C(C)=O)CC12CCN(C(=O)CCc1cccc(OC)c1)CC2", "note": "(stereo unspecified)", "outcome": "inactive"}, {"molecule": "COc1ccc(C(=O)N2CC(Oc3ccc4c(c3)OCO4)C2)cc1", "Potency": "inconclusive: 112 µM [inhibitor, single point]"}, {"molecule": "Fc1ccc(-c2nc3nccc(-c4ccsc4)n3n2)cc1Cl", "Potency": "inconclusive: 50.1 µM [inhibitor, single point]"}, {"molecule": "Cc1cnc(C(=O)N2CCCC2c2nc(CCOc3ccc(F)cc3)no2)cn1", "note": "(stereo unspecified)", "Potency": "inconclusive: 50.1 µM [inhibitor, partial curve, poor fit]"}, {"molecule": "COc1ccc2[nH]cc(CCNC(=O)c3ccc4c(c3)C(O)CCCCCN4C)c2c1", "note": "(stereo unspecified)", "Potency": "inconclusive: 56.2 µM [inhibitor, partial curve, poor fit]"}, {"molecule": "CSc1cccc(NC(=O)Nc2cccc(-c3ccc(N4CCOCC4)nn3)c2)c1", "Potency": "active: 28.2 µM"}, {"molecule": "CCc1c(C)nn(CCNc2ncnc3c2c(C)nn3C)c1C", "Potency": "inconclusive: 100 µM [inhibitor, single point]"}, {"molecule": "COc1cccc(CNC(=O)[C@@H]2CCCN2C(=O)c2cccc(-c3ccccc3OC)c2)c1", "Potency": "inconclusive: 56.2 µM [inhibitor, partial curve, poor fit]"}, {"molecule": "COc1ccc(C(=O)NCCNC(=O)c2ccc(-c3cccc(OC)c3)cc2)cc1", "activity change, negative = cytotoxicity": "inactive: -2.79%"}, {"molecule": "O=C(NC1CCCN(c2cc(-c3ccccc3)[nH]n2)C1)c1ccc2c(c1)OCO2", "note": "(stereo unspecified)", "Potency": "inconclusive: 70.8 µM [inhibitor, partial curve, poor fit]"}, {"molecule": "Cc1ncsc1CN1CC(N(CC(C)C)C2CCOCC2)C1", "activity change, negative = cytotoxicity": "inactive: -1.71%"}, {"molecule": "COc1ccc(-c2onc(C)c2C(=O)NCCC(c2ccccc2)c2ccccc2)cc1", "Potency": "inconclusive: 39.8 µM [inhibitor, partial curve]"}, {"molecule": "COC(=O)c1ccc2nc(CO[C@H]3CN(Cc4ccc(OC)nc4)C[C@H]3F)[nH]c2c1", "activity change, negative = cytotoxicity": "inactive: -14.7% [at 172 µM]"}, {"molecule": "Cc1ccc(CNC(=O)c2ccc3c(c2)CN(Cc2cnn(C)c2C)CCO3)cc1", "Potency": "inconclusive: 44.7 µM [inhibitor, partial curve]"}, {"molecule": "O=C(Cc1c[nH]c2ncc(-c3cccc(O)c3)cc12)N1CCOCC1", "Potency": "inconclusive: 100 µM [inhibitor, partial curve, poor fit]"}, {"molecule": "CCOCCCNC(=O)c1nnn2cc(-c3ccccc3)[nH]c(=O)c12", "activity change, negative = cytotoxicity": "inactive: 6.9%"}, {"molecule": "CC(=O)N1CCC([C@@H]2CN(Cc3ccc(C#N)cc3)C[C@H]2CO)CC1", "activity change, negative = cytotoxicity": "inactive: -22.1%"}, {"molecule": "Cc1ccc(-c2cccc(CN3C4CCC3CN(C(C)C)C4)c2)c(C)c1", "Potency": "inconclusive: 79.4 µM [inhibitor, partial curve, poor fit]"}, {"molecule": "Cc1nn(-c2ccccc2)c2c1C(C(C)C)N(C1CCCN(C(=O)C(C)(C)C)C1)C2=O", "note": "(stereo unspecified)", "Potency": "inconclusive: 89.1 µM [inhibitor, single point]"}, {"molecule": "O=C(c1ccccc1F)N1CCCC(C(=O)N2CCCC(c3nc4ccncc4[nH]3)C2)C1", "note": "(stereo unspecified)", "activity change, negative = cytotoxicity": "inactive: -21.5%"}, {"molecule": "CN(Cc1cccc(C(F)(F)F)c1)[S+](=O)([O-])c1cccc(C(F)(F)F)c1", "Potency": "inconclusive: 89.1 µM [inhibitor, single point]"}, {"molecule": "CNC(=O)c1ccc2nnc(-c3cccc([S+](C)(=O)[O-])c3)n2c1", "activity change, negative = cytotoxicity": "inactive: -8.59% [at 172 µM]"}, {"molecule": "C=CCNC(=O)[C@@H]1Cc2cn(Cc3c(C)noc3C)c3cccc(c23)[C@H](CC(C)C)N1", "Potency": "active: 100 µM"}, {"molecule": "OCc1cccc(-c2ccc3ncc(Nc4cccc(C(F)(F)F)c4)n3n2)c1", "Potency": "inconclusive: 39.8 µM [inhibitor, full curve, poor fit]"}, {"molecule": "CC(C)NC(=O)N1CCC(O)(c2csc(CN3CCc4ccccc4C3)n2)CC1", "Potency": "inconclusive: 89.1 µM [inhibitor, partial curve, poor fit]"}, {"molecule": "CCN1c2cc(C(=O)Nc3cc(F)cc(F)c3)ccc2C(=O)N2CCCCC21", "note": "(stereo unspecified)", "Potency": "active: 35.5 µM"}, {"molecule": "CN(C)c1ccc(C(=O)NC2CCN(c3cc(-c4ccccc4)[nH]n3)C2)cc1", "note": "(stereo unspecified)", "Potency": "inconclusive: 89.1 µM [inhibitor, single point]"}, {"molecule": "O=C(c1ccc(C(F)(F)F)cc1)N1CCC(c2nn(-c3ccccn3)c(=O)[nH]2)CC1", "activity change, negative = cytotoxicity": "inactive: -8.28%"}, {"molecule": "CC1(COc2cccnc2)COc2ccc(C(=O)NCCOc3ccccc3)cc2N1", "note": "(stereo unspecified)", "Potency": "inconclusive: 39.8 µM [inhibitor, partial curve, poor fit]"}, {"molecule": "O=C(c1ccc2cc[nH]c2c1)N1CCC(N2CC(OCC3CC3)C23CCCCC3)CC1", "note": "(stereo unspecified)", "Potency": "active: 50.1 µM"}, {"molecule": "CN(C)c1ccc(CN2CCOC[C@H]2c2ncc(-c3ccc(F)cc3F)[nH]2)cc1", "Potency": "inconclusive: 126 µM [inhibitor, single point]"}, {"molecule": "COCCc1noc(CC2CCOC3(CCN(C(=O)C4CCCC4)CC3)C2)n1", "note": "(stereo unspecified)", "activity change, negative = cytotoxicity": "inactive: -15.6%"}, {"molecule": "Cc1cc(F)ccc1NC(=O)CCC1CCCN(Cc2cn[nH]c2-c2cccc(F)c2)C1", "note": "(stereo unspecified)", "Potency": "inconclusive: 89.1 µM [inhibitor, single point]"}, {"molecule": "CN(CC1CCOC1)C(=O)Nc1ccccc1F", "note": "(stereo unspecified)", "activity change, negative = cytotoxicity": "inactive: 12%"}, {"molecule": "CC1=C[C@@H](CNS(C)(=O)=O)[C@H](C(C)C)C[C@H]1Cc1nc2ccccc2[nH]1", "Potency": "inconclusive: 70.8 µM [inhibitor, partial curve]"}, {"molecule": "Cn1ccc2c(C(=O)NCCc3cnc[nH]3)nc(-c3cnn(Cc4ccccc4)c3)cc21", "Potency": "inconclusive: 100 µM [inhibitor, partial curve, poor fit]"}, {"molecule": "O=C(Nc1ccc(Cl)nc1)c1ccc2cncn2c1", "Potency": "inconclusive: 126 µM [inhibitor, single point]"}, {"molecule": "CCc1ccc(C(=O)NC2CCN(c3cc(-c4ccc(F)cc4)[nH]n3)C2)cc1", "note": "(stereo unspecified)", "Potency": "inconclusive: 50.1 µM [inhibitor, partial curve, poor fit]"}, {"molecule": "Cc1cccc(-c2ccc3c(c2)C(=O)N2CC[C@H](NC(=O)c4cccs4)C[C@H]2C(=O)N3)c1C", "Potency": "inconclusive: 50.1 µM [inhibitor, partial curve, poor fit]"}]}]}
